# Out of some 50,000 compounds screened, about 800 (1.6%) showed an effect of 50% or more. This is one part of the list.
# Biological target: Bcl-2-like protein 10 (Homo sapiens) (UniProt Q9HD36)
# Experiment: TR3 peptide-Bcl-B binding displacers, biochemical primary FP assay, phenotype converters (AID 1240);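 further: 0% = Bcl-B with tracer peptide and DMSO and 100% = tracer peptide lacking Bcl-B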
# Conditions: GST-Bcl-B / FITC-TR3 peptide fluorescence polarization; stronger effect = higher value; compound at 3.75 mg/L
# Chain of UniProt Q9HD36 (Q9HD36 whole entry, looked up): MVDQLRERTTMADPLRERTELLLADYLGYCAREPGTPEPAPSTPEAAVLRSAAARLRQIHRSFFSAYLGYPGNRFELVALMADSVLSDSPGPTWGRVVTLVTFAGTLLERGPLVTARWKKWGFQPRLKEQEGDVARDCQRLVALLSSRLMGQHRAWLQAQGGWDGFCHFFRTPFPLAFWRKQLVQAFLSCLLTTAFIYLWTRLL
row,SMILES,displacement
1,COC(=O)c1ccccc1N/C=C/C(=O)c1ccc(Br)cc1,-2.6%
2,Cc1cccc(N2CCN(S(=O)(=O)c3ccc(Br)cc3)CC2)c1,-10%
3,COCCOC(=O)C1=C(C)NC(C)=C(C(=O)OCCOC)C1c1ccc(-c2cccc(Cl)c2)o1,10.3%
4,Cc1[nH]c(=O)c(C(=O)/C=C/c2ccccc2Cl)c2c1CCCC2,11%
5,CCOC(=O)CNC1CC(C)(C)NC(C)(C)C1,-1.2%
6,COc1cc2ccccc2cc1C(=O)Nc1ccc(N2CCOCC2)cc1,16.8%
7,Cc1ccc(C(C)C)c(OCC(O)Cn2cnc3ccccc32)c1 (stereo unspecified),1.1%
8,COc1ccc(C(=O)Oc2cc(C(=S)N3CCOCC3)ccc2OC)cc1,12.7%
9,C=CCNC(=O)COc1ccc(Br)c(C)c1,-11.2%
10,Cc1ccccc1C(=O)Nc1cc(C(N)=O)cc(C(N)=O)c1,-11.5%
11,Cc1cccc(C)c1NC(=O)CN1C(=O)c2ccccc2C1=O,2.5%
12,CCOC(=O)C1=C(C)N=c2s/c(=C\c3ccccc3OC)c(=O)n2C1c1ccc(C)cc1 (stereo unspecified),-2.8%
13,Cc1c(Cl)cccc1-c1ccc(C(=O)Nc2nccs2)o1,14.7%
14,Cc1cc(C)c(NC(=O)COc2ccc(C)cc2Br)c(C)c1,-7.2%
15,COC(=O)C1=C(C)N2C(=O)CSC2=NC1c1ccc2c(c1)OCO2 (stereo unspecified),-0.6%
16,O=C(CCCOc1ccccc1)NCCc1ccccc1,-7.7%

row,SMILES,displacement
1,CCOc1ccccc1NC(=O)CN(c1ccc(OC)cc1)S(C)(=O)=O,12.7%
2,COc1ccc(/C=C2\SC(=S)N(CCC(=O)OC3CCCCC3)C2=O)cc1,4.7%
3,CCCN1C/C(=C\c2ccc([N+](=O)[O-])cc2)C(=O)/C(=C/c2ccc([N+](=O)[O-])cc2)C1,2.5%
4,O=[N+]([O-])c1cccc(C2Nc3ccc(Cl)cc3C3C=CCC32)c1 (stereo unspecified),13.1%
5,COc1ccccc1NC(=O)c1ccccc1NC(=O)c1ccc(C)cc1,2.3%
6,Cc1cc(Cl)ccc1OCC(=O)Nc1sc2c(c1C(N)=O)CCC(C)C2 (stereo unspecified),1.2%
7,CN(C)c1ccc(C(=O)N2CCN(Cc3ccccc3)CC2)cc1,13.5%
8,Cc1ccc(/C=C2\C(=O)NC(=S)N(c3ccc(Br)cc3C)C2=O)o1,-5.3%
9,Cc1nn(C)c(C)c1NC(=O)c1ccnn1C,6.5%
10,COC(=O)c1ccc(/C=C2\SC(=S)N(c3ccc(F)cc3)C2=O)cc1,7.5%
11,NC(=O)c1cc2n(n1)C(C(F)(F)F)CC(c1ccco1)N2 (stereo unspecified),3.4%
12,COc1ccc(NC(=O)COc2ccc3ccccc3c2)cc1Cl,-3.9%
13,CCCCOc1ccc(/C=C(/C#N)c2nc3ccc(C)cc3[nH]2)cc1OC,3.6%
14,CC(=O)c1ccc(N2C(=O)C3C4C=CC(O4)C3C2=O)cc1 (stereo unspecified),7.6%
15,CN(C)C1(c2cccs2)CS(=O)(=O)C1,8.9%

# Source: PubChem BioAssay AID1240 (Sanford-Burnham Center for Chemical Genomics, 2008)
